In article PMC9617509, “Evaluation of Molecular Properties versus In Vivo Performance of Aflibercept, Brolucizumab, and Ranibizumab in a Retinal Vascular Hyperpermeability Model” (Translational Vision Science & Technology, 2022):

Molecular target: T1, recombinant human VEGF-A165 (human)
T1 chain: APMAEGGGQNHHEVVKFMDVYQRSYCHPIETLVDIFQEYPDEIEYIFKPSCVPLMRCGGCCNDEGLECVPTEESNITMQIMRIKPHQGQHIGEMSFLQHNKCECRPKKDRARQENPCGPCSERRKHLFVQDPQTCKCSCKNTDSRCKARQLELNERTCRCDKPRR
Assay: kinetic exclusion assay (KinExA); solution equilibrium; VEGF-A165 titrated (48.8 fM-1 nM) against constant aflibercept (2.5, 5.0 and 50.0 pM); equilibrated at 23°C for 5 to 120 hours in PBS, 0.01% Tween-20, 0.02% NaN3, 1 mg/mL BSA, pH 7.4; free inhibitor captured on VEGF-A165-coupled azlactone beads; one-site homogeneous binding model, N-curve global analysis; duplicate
Conditions: both partners purified

Kd: 0.172 pM
B1: aflibercept (Fc fusion)
chain: SDTGRPFVEMYSEIPEIIHMTEGRELVIPCRVTSPNITVTLKKFPLDTLIPDGKRIIWDSRKGFIISNATYKEIGLLTCEATVNGHLYKTNYLTHRQTNTIIDVVLSPSHGIELSVGEKLVLNCTARTELNVGIDFNWEYPSSKHQHKKLVNRDLKTQSGSEMKKFLSTLTIDGVTRSDQGLYTCAASSGLMTKKNSTFVRVHEK[human IgG1 Fc not printed]
